Reference: the antibiotic and cytotoxicity screens of Wong et al. (2023)
The list shows a part of the results.

What was measured:
[1] = tested on: HSkMC (human skeletal muscle cells); experiment: cytotoxicity call (relative viability < 0.9); settings: 10 µM
[2] = tested on: HepG2; experiment: cytotoxicity call (relative viability < 0.9); settings: 10 µM
[3] = tested on: S. aureus RN4220; experiment: growth inhibition call (relative growth <= 0.2); settings: 50 µM

C[C@H]1CCCCO[C@H](CN(C)C(=O)Nc2cccc3ccccc23)[C@@H](C)CN([C@@H](C)CO)C(=O)c2cc(NS(=O)(=O)c3ccc(Cl)cc3)ccc2O1
inactive: cytotoxicity call [1] | cytotoxicity call [2] | growth inhibition call [3]

COc1cccc(S(=O)(=O)N(C)C[C@H]2Oc3cc(C#CCN(C)C)ccc3S(=O)(=O)N([C@@H](C)CO)C[C@H]2C)c1
inactive: cytotoxicity call [1] | cytotoxicity call [2] | growth inhibition call [3]

COc1ccc(S(=O)(=O)N(C)C[C@@H]2OCCCC[C@@H](C)Oc3ccc(NC(=O)c4ccccc4)cc3C(=O)N([C@@H](C)CO)C[C@H]2C)cc1
inactive: cytotoxicity call [1] | cytotoxicity call [2] | growth inhibition call [3]

Cc1cccc(O)c1
inactive: cytotoxicity call [1] | cytotoxicity call [2] | growth inhibition call [3]

C[C@H](CO)N1C[C@H](C)[C@H](CN(C)C(=O)Nc2ccccc2)Oc2ccc(NC(=O)Cn3cnnn3)cc2C1=O
inactive: cytotoxicity call [1] | cytotoxicity call [2] | growth inhibition call [3]

C[C@@H]1CN([C@H](C)CO)C(=O)c2cc(C#Cc3ccccc3F)cnc2O[C@@H]1CN(C)S(=O)(=O)c1ccccc1
inactive: cytotoxicity call [1] | cytotoxicity call [2] | growth inhibition call [3]

C[C@@H]1CCCCO[C@@H](CN(C)S(=O)(=O)c2ccccc2)[C@H](C)CN([C@@H](C)CO)C(=O)c2cc(NS(=O)(=O)c3cn(C)cn3)ccc2O1
inactive: cytotoxicity call [1] | cytotoxicity call [2] | growth inhibition call [3]

C[C@@H]1CN([C@H](C)CO)C(=O)c2cc(NC(=O)Nc3cccc4ccccc34)ccc2O[C@@H]1CN(C)S(=O)(=O)c1ccc(Cl)cc1
inactive: cytotoxicity call [1] | cytotoxicity call [2] | growth inhibition call [3]

NS(=O)(=O)c1cccc2c1c([N+](=O)[O-])cc1[nH]c(=O)c(=O)[nH]c12
inactive: cytotoxicity call [1] | cytotoxicity call [2] | growth inhibition call [3]
